We go through 146 sequences from the BET-seq Pho4 binding data (Le et al. 2018).

The list shows a part of the results. These are noisy estimates, calculated here from bound and input reads.

For the assay, the target named is T1, Pho4 (S. cerevisiae) (UniProt P07270).
T1 sequence: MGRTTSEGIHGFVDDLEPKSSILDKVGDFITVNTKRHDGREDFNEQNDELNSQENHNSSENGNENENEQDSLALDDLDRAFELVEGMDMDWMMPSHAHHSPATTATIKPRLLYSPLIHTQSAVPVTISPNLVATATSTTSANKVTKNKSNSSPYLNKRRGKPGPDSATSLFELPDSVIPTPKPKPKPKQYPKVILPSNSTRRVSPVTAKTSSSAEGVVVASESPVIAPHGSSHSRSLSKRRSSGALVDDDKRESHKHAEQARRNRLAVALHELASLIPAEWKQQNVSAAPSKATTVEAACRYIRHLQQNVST
The assay is described as follows: relative binding free energy (BET-seq); higher = weaker binding. The note with it: reference: library average.
With TGACGCACGTGAGGGT, the “relative binding free energy” value came out at 0.2 kcal/mol.
For TATTTCACGTGAGTGG, the “relative binding free energy” value was 0.33 kcal/mol.
For the sequence AGGATCACGTGGTATG, the “relative binding free energy” value is 0.11 kcal/mol.
ATTGTCACGTGGGGCT: the “relative binding free energy” value is 0 kcal/mol.
The same measure for GAGGTCACGTGGGTGT: 0.04 kcal/mol; for TGATTCACGTGAATAT: 0.53 kcal/mol; for AGATACACGTGGGGCT: -0.05 kcal/mol.
In the case of GGTAGCACGTGCCTGG it was -0.15 kcal/mol; in that of GGCTTCACGTGCGGAG, 0.28 kcal/mol; in that of AGTGTCACGTGGGTCG, -0.09 kcal/mol.
In the case of AGTGGCACGTGATTTA it was -0.03 kcal/mol.
On to AGTCTCACGTGTTGGC, for which the “relative binding free energy” value was found to be 0.07 kcal/mol.
In the case of AAATACACGTGTGTGG it was -0.03 kcal/mol.
Consider TTTTTCACGTGGCGAT, for which the “relative binding free energy” value worked out at 0.18 kcal/mol.
On to TGTATCACGTGAATGC, for which the “relative binding free energy” value stood at 0.37 kcal/mol.
In the case of TATTTCACGTGCAGAT, the “relative binding free energy” value turned out to be 0.14 kcal/mol.
Regarding TAGGTCACGTGATGGT, the “relative binding free energy” value is 0.26 kcal/mol.
On to GATCACACGTGTGGGG, for which the “relative binding free energy” value came out at 0.14 kcal/mol.
With GTTAACACGTGATAAG, the “relative binding free energy” value was found to be 0.2 kcal/mol.
On to CTCTTCACGTGTGTTA, for which the “relative binding free energy” value is 0.24 kcal/mol.
In the case of TCGAACACGTGTAGGG it was 0.13 kcal/mol.
Take TATTTCACGTGGGACG: the “relative binding free energy” value turned out to be 0.2 kcal/mol.
The same measure for GCGGGCACGTGACGGT: -0.02 kcal/mol.
For GTAGGCACGTGGACTG, the “relative binding free energy” value is -0.03 kcal/mol.
With TAGAGCACGTGGTGTG, the “relative binding free energy” value was -0.18 kcal/mol.
In the case of TAAGACACGTGGAGGA it was 0.16 kcal/mol; in that of TGCTGCACGTGAGTTG, 0.2 kcal/mol.
Consider GGGGGCACGTGAATAG, for which the “relative binding free energy” value amounted to 0.21 kcal/mol.
In the case of TATTACACGTGTGGCG it was 0.17 kcal/mol; in that of GTTACCACGTGGGCTG, -0.03 kcal/mol.
The same measure for GGTTTCACGTGTTGTA: 0.3 kcal/mol; for AATTTCACGTGACGGG: 0.42 kcal/mol; for GTTCGCACGTGGTCGG: -0.02 kcal/mol.
Regarding TGGTTCACGTGAAGGC, the “relative binding free energy” value was determined as 0.28 kcal/mol.
For CTGGACACGTGGTGTA, the “relative binding free energy” value is -0.07 kcal/mol.
As to GGCGACACGTGATGGA, the “relative binding free energy” value was 0.39 kcal/mol.
In the case of AAGATCACGTGTAAGT, the “relative binding free energy” value was determined as 0.33 kcal/mol.
As for TTTTTCACGTGAGCTG, the “relative binding free energy” value was 0.26 kcal/mol.
The same measure for AGGTACACGTGTTTGA: -0.18 kcal/mol.
Take ACGCGCACGTGTTGGG: the “relative binding free energy” value was -0.05 kcal/mol.
Regarding AGGTTCACGTGGTGGA, the “relative binding free energy” value stood at 0.27 kcal/mol.
Take TGGCGCACGTGTGTAT: the “relative binding free energy” value was -0.03 kcal/mol.
As for TATTTCACGTGTTCGG, the “relative binding free energy” value was determined as 0.42 kcal/mol.
The same measure for TTTAGCACGTGTTACT: -0.15 kcal/mol; for GGTCGCACGTGCGTAG: -0.05 kcal/mol.
The same measure for TACGGCACGTGGATGA: -0.03 kcal/mol.
Turning to GGAGACACGTGATTGT, the “relative binding free energy” value was determined as 0.11 kcal/mol.
Regarding GATTTCACGTGGGATA, the “relative binding free energy” value came out at 0.19 kcal/mol.
In the case of TTCTTCACGTGAGGGA it was 0.41 kcal/mol.
For GCTTTCACGTGTGGCA, the “relative binding free energy” value was determined as 0.44 kcal/mol.
Turning to AATTACACGTGGAATT, the “relative binding free energy” value came out at 0.24 kcal/mol.
Turning to CGGGTCACGTGATAAG, the “relative binding free energy” value stood at 0.18 kcal/mol.
As to TCGTTCACGTGGTGTA, the “relative binding free energy” value was determined as 0.15 kcal/mol.
Turning to CGATACACGTGGTTGG, the “relative binding free energy” value is -0.04 kcal/mol.
In the case of TTTGTCACGTGCATGG it was 0.03 kcal/mol; in that of TTCTTCACGTGTCAGT, 0.34 kcal/mol.
Turning to TGGAGCACGTGTCGTG, the “relative binding free energy” value was -0.1 kcal/mol.
As to TTGTTCACGTGTTGCA, the “relative binding free energy” value came to 0.29 kcal/mol.
For the sequence GCGCTCACGTGAGGTG, the “relative binding free energy” value is 0.55 kcal/mol.
As for TTTCTCACGTGTGCTG, the “relative binding free energy” value amounted to 0.21 kcal/mol.
With CGTCGCACGTGGGTGG, the “relative binding free energy” value is -0.23 kcal/mol.
In the case of GTTGACACGTGGGAAG it was 0.1 kcal/mol; in that of CGGAGCACGTGTGATG, 0.07 kcal/mol; in that of CTACTCACGTGTGTGG, 0.09 kcal/mol.
For the sequence AGCAGCACGTGGATGT, the “relative binding free energy” value came to 0 kcal/mol.
The same measure for AGTAGCACGTGGTGGT: -0.1 kcal/mol; for TGGTTCACGTGCGCGA: 0.16 kcal/mol; for TAAATCACGTGGTTGA: 0.15 kcal/mol.
Take CGGGTCACGTGAAGGT: the “relative binding free energy” value came out at 0.2 kcal/mol.
For the sequence GATTACACGTGGTAGT, the “relative binding free energy” value was determined as 0.08 kcal/mol.
In the case of TTGAACACGTGTTCTT it was -0.05 kcal/mol.
GCGGGCACGTGTGGTG: the “relative binding free energy” value was -0.01 kcal/mol.
CTGGTCACGTGGGAAG: the “relative binding free energy” value was -0.1 kcal/mol.
Take GGGGACACGTGAACGG: the “relative binding free energy” value amounted to 0.3 kcal/mol.
For AGAGTCACGTGTGCGT, the “relative binding free energy” value was -0.02 kcal/mol.
In the case of TGTCGCACGTGAGGAA, the “relative binding free energy” value is 0.21 kcal/mol.
Regarding TAGCTCACGTGTTGAT, the “relative binding free energy” value came to 0.17 kcal/mol.
AGGGGCACGTGTCTAG: the “relative binding free energy” value is -0.24 kcal/mol.
With GTTCGCACGTGAGGGA, the “relative binding free energy” value was 0.11 kcal/mol.
Regarding CTGCGCACGTGGGGGA, the “relative binding free energy” value was -0.26 kcal/mol.
In the case of GTGTGCACGTGGTCTA it was -0.16 kcal/mol.
For the sequence TCAATCACGTGTTAGT, the “relative binding free energy” value was 0.07 kcal/mol.
As for TTTAGCACGTGGCGCG, the “relative binding free energy” value turned out to be 0 kcal/mol.
Consider TTGAGCACGTGGGGAT, for which the “relative binding free energy” value is -0.15 kcal/mol.
For the sequence ACTGGCACGTGGAGAT, the “relative binding free energy” value is -0.04 kcal/mol.
As to TGGAGCACGTGGTTTG, the “relative binding free energy” value is -0.03 kcal/mol.
Take TGTTGCACGTGGGGAA: the “relative binding free energy” value is -0.07 kcal/mol.
With TCATGCACGTGTGGCG, the “relative binding free energy” value was -0.01 kcal/mol.
As for TATGACACGTGTCGTT, the “relative binding free energy” value is -0.03 kcal/mol.
For the sequence CTTAACACGTGGAGGG, the “relative binding free energy” value is -0.03 kcal/mol.
In the case of AAAGGCACGTGTAATG it was 0.04 kcal/mol.
On to ATGTGCACGTGCGGCG, for which the “relative binding free energy” value was -0.24 kcal/mol.
In the case of GTTGTCACGTGCGGCC it was 0.15 kcal/mol; in that of GTGCACACGTGGGATT, 0.03 kcal/mol.
For the sequence CGGTTCACGTGGTGAT, the “relative binding free energy” value was 0.14 kcal/mol.
The same measure for ATGTTCACGTGAGCGT: 0.3 kcal/mol.
Regarding TATGACACGTGTACGG, the “relative binding free energy” value is 0.01 kcal/mol.
The same measure for CGGGGCACGTGGTCGG: -0.26 kcal/mol.
Take ATAGTCACGTGATGTA: the “relative binding free energy” value turned out to be 0.17 kcal/mol.
In the case of TCTTACACGTGTTGGT, the “relative binding free energy” value came out at 0.11 kcal/mol.
Consider TTGGTCACGTGACTAG, for which the “relative binding free energy” value is 0.14 kcal/mol.
In the case of AAGGCCACGTGTTGTG, the “relative binding free energy” value was -0.17 kcal/mol.
With AGAAACACGTGGTAGG, the “relative binding free energy” value turned out to be 0.03 kcal/mol.
Consider TGTATCACGTGGTCAG, for which the “relative binding free energy” value was 0.17 kcal/mol.
In the case of GGGTGCACGTGCAAGG, the “relative binding free energy” value amounted to 0.09 kcal/mol.
Turning to GTTTACACGTGTACTT, the “relative binding free energy” value turned out to be 0.05 kcal/mol.
ATATACACGTGCTTTT: the “relative binding free energy” value was -0.05 kcal/mol.
For the sequence GGTGACACGTGTCATG, the “relative binding free energy” value was determined as 0.14 kcal/mol.
TGATGCACGTGTGGTC: the “relative binding free energy” value was 0.09 kcal/mol.
With ATGGTCACGTGTGAAT, the “relative binding free energy” value came out at 0.26 kcal/mol.
The same measure for GATGACACGTGTAAGT: 0.12 kcal/mol; for AAGTACACGTGGGGCA: -0.09 kcal/mol; for CGTGGCACGTGGTGCG: -0.19 kcal/mol.
Take GTATCCACGTGTTTGG: the “relative binding free energy” value stood at 0.03 kcal/mol.
Turning to TGCGTCACGTGGGTAC, the “relative binding free energy” value is -0.02 kcal/mol.
For TTGAGCACGTGGGTAC, the “relative binding free energy” value is -0.24 kcal/mol.
For the sequence GGGGACACGTGTCTTG, the “relative binding free energy” value is -0.02 kcal/mol.
Turning to TGTCGCACGTGCTTTG, the “relative binding free energy” value is -0.13 kcal/mol.
As for AAGCGCACGTGGTTGT, the “relative binding free energy” value is -0.16 kcal/mol.
As to TCGGTCACGTGTGCAT, the “relative binding free energy” value worked out at 0.21 kcal/mol.
In the case of GTGTGCACGTGATTTT it was 0.16 kcal/mol; in that of GTGGTCACGTGAAAGT, 0.48 kcal/mol.
For GTGGCCACGTGTTTCG, the “relative binding free energy” value was -0.03 kcal/mol.
For the sequence TTTACCACGTGGCTTG, the “relative binding free energy” value is 0.03 kcal/mol.
The same measure for AAATGCACGTGTTTTG: -0.07 kcal/mol.
As to TATAACACGTGGGGGA, the “relative binding free energy” value is -0.22 kcal/mol.
Consider GCGAACACGTGGGGGG, for which the “relative binding free energy” value was -0.15 kcal/mol.
On to TTATTCACGTGATGCA, for which the “relative binding free energy” value is 0.26 kcal/mol.
Regarding ATTAGCACGTGGTGTA, the “relative binding free energy” value is -0.1 kcal/mol.
Turning to ATTTACACGTGGAATG, the “relative binding free energy” value was -0.07 kcal/mol.
AGGCTCACGTGAAGTG: the “relative binding free energy” value was 0.31 kcal/mol.
Take AGTGGCACGTGAGCTT: the “relative binding free energy” value is 0.09 kcal/mol.
Turning to GGTGACACGTGGGGTT, the “relative binding free energy” value is -0.04 kcal/mol.
In the case of GTGGCCACGTGGGTGT it was -0.09 kcal/mol; in that of TTTAACACGTGTAAGG, 0.12 kcal/mol.
For the sequence ACGTTCACGTGTAGGA, the “relative binding free energy” value stood at 0.35 kcal/mol.
For the sequence ACGGCCACGTGGGTTG, the “relative binding free energy” value is -0.2 kcal/mol.
In the case of CTTTCCACGTGTGTTT it was -0.01 kcal/mol.
For the sequence CTGTGCACGTGTTGGA, the “relative binding free energy” value was -0.02 kcal/mol.
For the sequence AGGTACACGTGGCGTT, the “relative binding free energy” value is 0.06 kcal/mol.
As to TTGGACACGTGGTGGT, the “relative binding free energy” value stood at 0 kcal/mol.
For the sequence CGCGGCACGTGGTATG, the “relative binding free energy” value was -0.14 kcal/mol.
Consider TTTGCCACGTGAGGGA, for which the “relative binding free energy” value stood at 0.14 kcal/mol.
In the case of TTTGGCACGTGAAGAG it was 0.08 kcal/mol.
The same measure for ATTTGCACGTGAGAAG: 0.04 kcal/mol; for AAGGTCACGTGGGTGC: -0.04 kcal/mol.
